Measured values taken from PubChem BioAssay AID1159614 (National Center for Advancing Translational Sciences (NCATS), 2016).
Screen size: about 45,000 compounds; about 65 (0.1%) were called active. The call rests on the fitted dose curve; in most records, active means well fitted activation curve with a large enough effect; inconclusive means small, poorly fitted or top-dose-only effect; inactive means no such curve, though single readings can be large or run the other way. This is one part of the list.

What follows are molecules tested against Galactocerebrosidase (Homo sapiens) (UniProt P54803) (assay: A Novel Cell-Based Assay to Identify Small Molecules for B -Galactocerebrosidase). Settings: 145M-Twi-hGALC-G270D cells, HMU-beta-Gal fluorescence, 48 h; series mostly up to 57.5 µM; activation: at the top concentration.
Procedure, shortened: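 qHTS, 1536-well; 145M-Twi-hGALC-G270D cells (WT line also made) in DMEM/F12 + 10% FBS; compound incubation on live cells; HMU-β-gal 0.1 mM final, pH 5.2, NaTC; carbonate stop; fluorescence increase = enhanced residual activity.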
Further: 0% is about no effect; nearly all actives have a fitted effect of over 65% in size.

UniProt P54803, sequence (P54803 whole entry, looked up): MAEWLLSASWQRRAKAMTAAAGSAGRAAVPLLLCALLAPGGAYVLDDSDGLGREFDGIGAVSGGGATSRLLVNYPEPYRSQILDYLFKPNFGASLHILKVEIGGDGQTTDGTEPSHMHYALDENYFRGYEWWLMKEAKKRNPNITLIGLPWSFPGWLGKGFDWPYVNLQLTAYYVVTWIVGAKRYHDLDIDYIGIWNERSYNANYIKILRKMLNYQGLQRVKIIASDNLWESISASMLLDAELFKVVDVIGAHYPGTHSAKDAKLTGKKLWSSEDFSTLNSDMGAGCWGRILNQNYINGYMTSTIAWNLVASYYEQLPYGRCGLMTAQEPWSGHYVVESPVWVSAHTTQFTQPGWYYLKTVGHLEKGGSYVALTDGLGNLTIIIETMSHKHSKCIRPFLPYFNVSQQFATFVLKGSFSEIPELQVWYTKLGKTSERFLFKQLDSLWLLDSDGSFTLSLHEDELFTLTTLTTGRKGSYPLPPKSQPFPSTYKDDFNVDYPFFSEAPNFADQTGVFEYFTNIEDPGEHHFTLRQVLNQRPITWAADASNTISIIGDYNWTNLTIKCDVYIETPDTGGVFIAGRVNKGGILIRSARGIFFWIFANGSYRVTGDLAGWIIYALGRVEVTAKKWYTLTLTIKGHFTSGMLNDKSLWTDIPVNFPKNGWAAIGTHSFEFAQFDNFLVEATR

activation, inactive:
CC(=O)Oc1ccc(C2(c3ccc(OC(C)=O)cc3)Oc3ccccc3NC2=O)cc1 -7.23%, COc1ccc(CNC(=O)CN(C)c2nn3c(=O)cc(C)nc3s2)cc1 -20.7%, COc1cccc(C2=NN(S(C)(=O)=O)C(c3cn(-c4ccccc4)nc3-c3cccs3)C2)c1 (stereo not drawn) 0.757%, CC(=O)c1ccc(N2CCN(C(=O)CS(=O)(=O)c3cccc4nsnc34)CC2)cc1 4.35%, Cc1cccc(NC(=O)c2oc3ccc(S(=O)(=O)N4CCCCC4)cc3c2C)c1C -19.3%, COc1ccc(-c2[nH]c(-c3ccc(OC)c(OC)c3)nc2SCC(=O)Nc2ccccc2)cc1 -19.4%, COc1cc(C(=O)Nc2ccccc2OCc2cc(=O)n3cc(C)sc3n2)cc(OC)c1OC 4.67%, Cc1ccc(-c2nnc(Nc3ccc(Cl)cc3)c3ccccc23)cc1S(=O)(=O)NCC1CCCO1 (stereo not drawn) -18.2%, O=C(c1cccc(Cl)c1)N1CCC(c2nc3c(nnn3Cc3ccc(F)cc3F)c(=O)[nH]2)CC1 -14.8%, COc1ccc(C(=O)c2cn(Cc3ccccc3F)c3ccc(F)cc3c2=O)cc1 -12.8%, CCOc1ccccc1C(=O)N(Cc1ccc(N(C)C)cc1)Cc1ccco1 -32.5%, Cn1ccc2cc(S(=O)(=O)N3CCCN(C(=O)Nc4ccc(Br)cc4)CC3)ccc21 -17.8%, Cc1ccc(Nc2c(-c3ccc(N(C)C)cc3)nc3ccccn23)cc1 3.21%, Cc1cccc(-c2nc3cc(NC(=O)Cc4ccc(Cl)cc4)ccc3o2)c1 -6.71%, COc1ccc(NC(=O)c2c(NC(=O)COc3ccc(Cl)cc3)sc3c2CCCCC3)cc1 -7.44%, CCOC(CN1CCN(CC(C)C(=O)c2ccccc2)CC1)c1ccccc1 (stereo not drawn) -13.1% [at 23.8 µM], CCN(C(=O)Cn1nc2c3cc(F)ccc3n(Cc3cccc(C)c3)cc-2c1=O)c1cccc(C)c1 -0.308%, CCOC(=O)CCN(Cc1ccccc1)S(=O)(=O)c1csc(C(N)=O)c1 -15.8%, CCN(CC)CCOC(=O)c1ccc(NC(=O)c2nn(-c3ccc(C)cc3)c(=O)c3c2c2ccccc2n3C)cc1 -17.3%, C[N+]1(C)[C@@H]2CC(OC(=O)[C@H](CO)c3ccccc3)C[C@H]1[C@@H]1O[C@@H]12 (stereo partly drawn) -9.08%, CCOC(=O)c1ccc2c(c1)N(CC(=O)Nc1cc(F)ccc1F)C(=O)c1ccccc1S2 -10.1%, O=C(NCCCN1CCN(c2ccc(F)cc2)CC1)c1cc2c(s1)-c1ccccc1OC2 2.19%, CC1=C(C(N)=O)C(c2cccc(C)c2)n2nc(-c3ccc(Cl)cc3)nc2N1 (stereo not drawn) -9.16%, CSc1ccccc1NC(=O)C1=CC(c2ccc3c(c2)OCO3)=NS(=O)(=O)N1C -8.74%, OCC(CO)N[C@H]1C[C@](O)(CO)[C@@H](O)[C@H](O)[C@H]1O -11.7%, COc1ccc(Cn2nnc3c(=O)[nH]c(C4CCCN(C(=O)c5ccccc5Cl)C4)nc32)cc1OC (stereo not drawn) -8.87%, N#Cc1cc2c(=O)n3ccccc3nc2n(-c2nnc(SCc3ccc(F)cc3)s2)c1=O -5.74%, COc1ccc(CNC(=O)c2oc3c(c2C)-c2nn(Cc4ccccc4Cl)cc2CC3)cc1 -23.5%, Cc1ccc(C)c(NC(=O)C(=O)NCC(c2cccnc2)N2CCN(c3ccc(F)cc3)CC2)c1 (stereo not drawn) -3.36%, COc1cc(OC)c(NC(=O)N2CCOc3ccc(C)cc32)cc1Cl -21.8%, Cc1ccc(-n2nc(C(=O)N3CCCCC3C)c(=O)n(C)c2=O)cc1 (stereo not drawn) -12.8%, CCOc1ccccc1NC(=O)C1CCN(S(=O)(=O)c2ccc(Br)cc2)CC1 25.3%, Cc1nn(CCCC(=O)NCc2ccccc2)c(=O)c2c1sc1ccccc12 -10.4%, COc1ccc(NC(=O)c2c(NCc3ccc(C)o3)sc3c2CCC(C)C3)cc1 (stereo not drawn) -12.7%, CC1CN(C(=O)CCC(=O)NCc2cccs2)c2ccccc2O1 (stereo not drawn) -25.5%, COc1cc(NC(=O)C2=C(C)Nc3nnnn3C2c2ccc(SC)cc2)c(OC)cc1Cl (stereo not drawn) -13.2%, CCOC(=O)c1ccc(NC(=O)c2nc(S(=O)(=O)Cc3ccccc3)ncc2Cl)cc1 -16.3%, CCOC(=O)N1CCc2c(sc3c2c(=O)n(Cc2ccccc2)c(=O)n3Cc2cccc(Cl)c2)C1 -4.19%, Cc1ccc(S(=O)(=O)c2cn(C)c3cc(N4CCN(c5ccccc5)CC4)c(F)cc3c2=O)cc1 -7.77%, CCOc1ccc(C(=O)Nc2ccc3nc4c(c(Nc5ccccc5OC)c3c2)CCCC4)cc1 -23.2%, CCOc1ccc2nc(NC(=O)c3nc(SCc4ccc(C)cc4)ncc3Cl)sc2c1 -7.67%, COc1ccc(N2CCN(c3nc4ccccc4n4c(C)nnc34)CC2)cc1 -10.8%, CCOC(=O)CC(NS(=O)(=O)c1cc(-c2cc(C)no2)ccc1C)c1ccc(C)cc1 (stereo not drawn) -23.6%, CC(C)CCn1c(=O)c2sccc2n2c(CCCC(=O)Nc3ccc(C(C)C)cc3)nnc12 -2.02%, CN(C(=O)CSc1nc2ccccc2[nH]1)c1ccc(F)cc1 -6.09%, Cc1ccc(CSc2nncn3c2cc2sccc23)cc1 -10.5%, O=C(CC1N=C2c3ccccc3N=C(SCC(=O)Nc3ccccc3F)N2C1=O)NCc1ccc2c(c1)OCO2 (stereo not drawn) -17.2%, Cc1ccc2occ(CC(=O)Nc3c(C(=O)Nc4ccc(Cl)cc4)oc4ccccc34)c2c1 -11.4%, CC(C)COc1ccc(C(=O)N2CCC(c3nc4ccccc4s3)CC2)cc1 -17%, Cc1cccc(C)c1NC(=O)CN(C)S(=O)(=O)c1ccc2[nH]c3c(c2c1)CCCC3 -24.7%, Cc1cccc(N2C(=O)N(Cc3ccc(C(C)(C)C)cc3)c3ccccc3S2(=O)=O)c1 -9.36%, O=C(NCc1ccc(Cl)cc1)c1cnc(N2CCOCC2)c2ccccc12 -5.23%, COc1ccccc1NC(=O)C1=C(C)Nc2nc(SCC(=O)c3ccc(C)cc3)nn2C1c1ccc(F)cc1 (stereo not drawn) -8.09%, Cc1ccc(CSCCNC(=O)CN(c2cccc(C)c2C)S(=O)(=O)c2ccccc2)cc1 -4.08%, CCOC(=O)c1c(NC(=O)C(C)Sc2cn(CCNC(=O)c3ccc(OC)cc3)c3ccccc23)sc2c1CCC2 (stereo not drawn) 3.81%, CCCOCc1cc(CN2CCN(c3ccccc3OC)CC2)c(O)c2ncccc12 -17.7%, COc1ccc(OC)c(S(=O)(=O)NCc2ccc3c(c2)CCN3C(=O)c2cccc(C)c2)c1 3.2%, Cc1ccccc1CNC(=O)c1ccc(Cn2c(SCc3ccccc3)nc3cccnc32)cc1 -12.7%
